# Measurements from the supplement of paper PMC3334620.
# Over roughly 33,000 sequences, “E-score (-0.5 to 0.5)” has its median near -0.032; the highest 2% begin near 0.36. This is one part of the list.
# Target: T1, Sko1 (UniProt Q02100)
# T1 sequence: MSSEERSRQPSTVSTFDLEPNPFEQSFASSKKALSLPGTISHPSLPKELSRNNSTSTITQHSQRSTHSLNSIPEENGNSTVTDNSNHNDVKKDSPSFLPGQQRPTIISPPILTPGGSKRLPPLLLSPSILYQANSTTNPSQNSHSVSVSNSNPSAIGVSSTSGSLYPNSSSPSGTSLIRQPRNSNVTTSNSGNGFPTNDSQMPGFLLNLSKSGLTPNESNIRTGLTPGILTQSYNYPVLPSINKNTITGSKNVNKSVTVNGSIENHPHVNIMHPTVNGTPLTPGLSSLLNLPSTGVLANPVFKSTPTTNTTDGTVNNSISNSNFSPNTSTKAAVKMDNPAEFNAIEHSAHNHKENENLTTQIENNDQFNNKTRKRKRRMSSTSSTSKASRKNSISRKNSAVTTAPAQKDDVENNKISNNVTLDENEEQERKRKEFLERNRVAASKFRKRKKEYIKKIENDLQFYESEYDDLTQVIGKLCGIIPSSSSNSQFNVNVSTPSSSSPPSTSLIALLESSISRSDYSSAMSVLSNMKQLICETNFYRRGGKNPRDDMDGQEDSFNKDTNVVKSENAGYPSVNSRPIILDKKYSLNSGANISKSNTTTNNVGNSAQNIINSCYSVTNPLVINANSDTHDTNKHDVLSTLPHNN
# Assay: PBM E-score (8-mer binding enrichment) (E-score (-0.5 to 0.5)); higher = stronger / more preferred TF binding; most listed sequences are background and not binding sites
# Settings: protein concentration: 200 nM; construct: GST-full length
# Procedure: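 Universal 'all 10-mer' protein binding microarrays (Agilent AMADID 015681) probed with GST-tagged S. cerevisiae TFs (full-length or DBD) made by in vitro transcription/translation (PURExpress), about 100-200 nM. Bound TF was detected with fluorescent anti-GST. Each ungapped 8-mer (which stands for itself and its reverse complement) is scored by the PBM enrichment score (E-score), a modified Wilcoxon-Mann-Whitney statistic from -0.5 to +0.5, computed with the Universal PBM Analysis Suite. Scale: above 0.35 generally sequence-specific binding.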
row,Sequence,PBM E-score
1,GAGTTTAC,0.103
2,ACTCCAGT,0.0224
3,GAGGTCCC,-0.283
4,ATATTACC,0.251
5,TGCGCACA,0.109
6,AATTATCG,0.279
7,TACTAGTA,0.262
8,AGAAGAAA,0.0314
9,AATATAGC,0.171
10,CGCGGGGC,-0.261
11,GCTAGCAA,-0.131
12,AATCGGGG,-0.246
13,GAGTTCGA,0.0938
14,ACATAGGA,-0.17
15,GCTCTCGA,-0.138
16,CAGCCGCC,-0.191
17,ACTAGAGC,-0.13
18,CCGACTCA,-0.246
19,CAAGAGTA,0.029
20,AGTTTGTA,0.0762
21,GAGACCAC,0.0993
22,CGATCGGA,-0.154
23,ATACCAGC,-0.215
24,AGGTTGAT,-0.163
25,CGATTACG,0.448

row,Sequence,PBM E-score
1,CGTATTCA,0.332
2,ATATCGAC,0.158
3,ATTTGAAG,-0.0311
4,GACCTACC,-0.281
5,TATAGAGA,0.032
6,CGCGACTC,-0.0357
7,CGTGACAC,0.195
8,AGCAGATG,-0.139
9,CCATTTCA,-0.154
10,CTCATGTA,0.17
11,GCAACGAC,0.0302
12,AATCGAAA,0.131
13,AAAGCGGG,-0.187
14,CTGGTATA,-0.226
15,TATTGCGA,0.193
16,ACCGAGTA,-0.101
17,TCCCGCCA,-0.331
18,GGCTTATA,-0.0538
19,CTATTTAC,0.164
20,ATTGGGCG,-0.127
21,AATCACGC,0.205
22,GAGCTGAA,-0.145
23,ATATATTG,0.0698
24,CAATCCGC,-0.118
25,CGAGAGAC,-0.288

row,Sequence,PBM E-score
1,CGTCTCAC,0.0535
2,AATGCAAG,0.137
3,CGTAGGTC,0.284
4,GCGAGTGA,0.00389
5,AACATCAA,0.234
6,ACTAAGAT,0.151
7,TGGTAAAA,0.198
8,ACTTCTCC,-0.216
9,ATAGAGGG,-0.102
10,ATACCTAT,0.142
11,CAAGCCTG,-0.0726
12,GCGTTCAC,0.0396
13,ATGTTGCC,-0.155
14,ACTACAGT,0.0523
15,TCATGTAA,0.26
16,AGCGGCCC,-0.394
17,AAATGCGT,0.3
18,ATTTGTAC,0.191
19,CATAGACA,0.149
20,GAGTCTGA,-0.238
21,CATTCCTC,-0.0246
22,GAAACCTA,-0.194
23,AAGATTAA,0.144
24,GACCCTTA,-0.106
25,AAGCTACA,-0.0145

row,Sequence,PBM E-score
1,ATGCTTAA,0.00768
2,CATCACGC,0.237
3,ATTAGGTC,0.207
4,AGCACTTA,-0.0248
5,TAGTACTA,0.0117
6,GTTGTTCA,0.0736
7,GAATTAAA,0.0159
8,ACCGCCGG,-0.364
9,CTACGTTA,0.406
10,GGTCTCAA,-0.182
11,ATTATTAG,0.0971
12,CCCAACAA,-0.00752
13,AGCATGCT,-0.0729
14,CGACACAG,-0.0787
15,CCTAAACC,-0.14
16,CTAGATCC,-0.244
17,GTCGTCAC,0.41
18,ACGGTGAA,0.0275
19,GCCTGTGA,-0.138
20,CAAACTTA,0.123
21,ATTTTGGG,-0.11
22,CACATACA,0.0747
23,CACCACGG,-0.313
24,AAGCTTAA,-0.0543
25,GCTCTGCA,-0.271

row,Sequence,PBM E-score
1,AACTACCA,0.0137
2,GGTCGTCA,0.38
3,CTAAACCC,-0.221
4,CCAGTTTC,-0.246
5,TTCTCAAA,0.0993
6,CACCCAGG,-0.314
7,TCCAAGAA,-0.0748
8,CCACGGAG,-0.025
9,AAGCTAAG,-0.154
10,CAGGGTCC,-0.285
11,ACGATGTA,0.226
12,CAGATTAC,0.186
13,CGATGATA,0.126
14,CATAGCTC,0.0909
15,CGAGCGTA,0.129
16,ACAGTGGA,-0.0428
17,AAAGATCG,0.0205
18,CGTCTCAG,0.0209
19,CTTAATAC,0.267
20,ACCTCTCC,-0.112
21,GAAGGGAA,-0.0887
22,AACTCGAG,-0.00786
23,GAATTTGA,0.0364
24,TAAGACTA,-0.0768
25,GAGAATCC,-0.0249

row,Sequence,PBM E-score
1,CGGAGAAC,-0.0372
2,CAGGGAAG,-0.212
3,TACGCTCA,0.176
4,GCGTCCAA,-0.016
5,GTGATAAA,0.224
6,CTTCAATA,0.197
7,TGGCGAAA,-0.0259
8,TAGCACAA,0.0507
9,GTACAGTA,0.0318
10,AACAGTGA,0.081
11,CAGAAAGG,-0.145
12,TTACGCAA,0.466
13,AGTCACAG,-0.0124
14,CCCCCGCA,-0.273
15,CTGTGTTC,-0.00553
16,AACGCATA,0.219
17,CAATACCC,-0.0336
18,TCCGAAGA,-0.111
19,CGATGGCA,-0.103
20,CGCAATAG,0.19
21,ACCGACGG,-0.181
22,AATTGTAA,0.0478
23,ACAGGGAA,-0.143
24,AGCCCAGC,-0.207
25,TAGCCAGA,-0.141

row,Sequence,PBM E-score
1,AGCTAATC,0.169
2,GTCCACGA,-0.131
3,AGAGTCTG,-0.319
4,ACGCTCGC,0.123
5,GGAGCTAC,-0.112
6,GTACTCGA,0.0478
7,CATATGAA,0.137
8,GAGATCTA,-0.0105
9,TGTTACAA,0.077
10,GCCCACCA,-0.287
11,CCCAAGCG,-0.251
12,AACTTGTA,0.0747
13,CTTTGGTA,-0.104
14,ATTAACAC,0.335
15,AGGAACGG,-0.233
16,CTTAAAGA,0.00637
17,CATAACAG,0.155
18,TAGACGAA,0.163
19,GAGTGTCA,0.113
20,AGAGTGCA,-0.147
21,AAGAACCC,-0.0238
22,ACCATAAA,-0.00095
23,CCCAATAC,0.0194
24,GGAGTGTA,-0.173
25,ATTTACCC,-0.0225

row,Sequence,PBM E-score
1,CAATCCCG,-0.0545
2,GAAGCACA,-0.204
3,ATACCGTG,-0.0765
4,ATTTCTAC,0.164
5,ACTACTTG,-0.0017
6,AACTTAAC,0.189
7,GCACGTGA,0.387
8,CCCCGGGG,-0.35
9,CATTAACG,0.132
10,AAGAATCA,-0.0357
11,ACCTGGGC,-0.321
12,GGTTGAAC,-0.156
13,CATTCAGA,-0.0259
14,ATCCGCTA,-0.0307
15,GCGTGTCC,-0.0297
16,ACACATGT,0.0725
17,CCTGATTC,-0.163
18,ATTAAGAC,0.0342
19,ATATCACG,0.309
20,CGCATAAA,0.135
21,GCACTCAA,-0.123
22,TGTACACA,0.22
23,ACCCCGGA,-0.165
24,AGCACCGA,0.0488
25,ATACTGGA,0.0132

row,Sequence,PBM E-score
1,AAAAGGCA,0.0227
2,AAAGTGCT,0.018
3,CAACCACA,0.128
4,AAAGGATT,-0.0186
5,CTGACAAA,0.109
6,GGTGTTGA,-0.137
7,AAGGCAAT,0.0439
8,ATAGCCTG,-0.251
9,AAGCCCAG,-0.214
10,ACATAGAC,0.074
11,GACTGCAA,-0.203
12,ACACATCC,-0.0658
13,CGCCCCGC,-0.137
14,AACGTACT,0.37
15,TCCAATAA,0.146
16,CTAGAGTC,-0.357
17,CGAGTGCG,0.0803
18,AGAGACTC,-0.126
19,CTAAAGCA,0.0664
